Assay results reported in the supplement of paper PMC7826260.
This is one part of the list. Each Rep nickase domain was tested in vitro on the same pool of single strands (1 h at 37 °C, 3 µM enzyme); the outer parts of the 90-letter strands are left off. Uncut reads are compared with the no-enzyme pool on a log2 scale; the lower, the more was cut; hits are not called. Because reads are shares of a total, they shift together, so uncut sequences can rise above 0 when many others are cut.

Assays:
Experiment in all cases: uncleaved DNA left, log2 of reads against the no-enzyme library (log2 ratio); higher = less cleavage (more negative = more Rep cleavage of the k-mer); sequences stand for … in CTCGTCCG…ACCGGAGA
[1] = system: T1, Rep nickase domain of Muscovy duck circovirus
T1 sequence (residues 1-111 of Rep, tag left off): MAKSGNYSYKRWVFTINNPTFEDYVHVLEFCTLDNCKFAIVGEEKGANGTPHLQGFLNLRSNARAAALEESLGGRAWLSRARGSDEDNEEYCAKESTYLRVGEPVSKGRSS
Description: (§1)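 A pool of 90-nt single-stranded DNAs with seven random bases just before the constant AC of the nick site (name = the seven bases) was cut by 3 µM recombinant His6-SUMO-tagged Rep nickase domain (300 nM DNA, 50 mM HEPES pH 8.0, 50 mM NaCl, 1 mM MnCl2, 1 h, 37 °C, three replicates). Uncut DNA was amplified and sequenced.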

[2] = system: T2, Rep nickase domain of banana bunchy top virus
T2 sequence (residues 1-94 of Rep, tag left off): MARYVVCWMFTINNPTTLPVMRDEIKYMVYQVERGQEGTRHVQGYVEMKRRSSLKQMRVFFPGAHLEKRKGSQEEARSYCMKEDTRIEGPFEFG
Description: as §1

[3] = system: T3, Rep nickase domain of cabbage leaf curl virus
T3 sequence (residues 1-116 of Rep, tag left off): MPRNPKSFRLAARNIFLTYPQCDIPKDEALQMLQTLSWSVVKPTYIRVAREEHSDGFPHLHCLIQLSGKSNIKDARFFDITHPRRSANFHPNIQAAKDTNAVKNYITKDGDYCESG
Description: as §1

[4] = system: T4, Rep nickase domain of chickpea chlorotic dwarf virus
T4 sequence (residues 1-124 of Rep, tag left off): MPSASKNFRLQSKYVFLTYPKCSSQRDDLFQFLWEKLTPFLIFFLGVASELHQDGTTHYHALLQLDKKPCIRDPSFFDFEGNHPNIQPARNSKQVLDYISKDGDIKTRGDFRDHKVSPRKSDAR
Description: as §1

[5] = system: T5, Rep nickase domain of faba bean necrotic yellows virus
T5 sequence (residues 1-98 of Rep, tag left off): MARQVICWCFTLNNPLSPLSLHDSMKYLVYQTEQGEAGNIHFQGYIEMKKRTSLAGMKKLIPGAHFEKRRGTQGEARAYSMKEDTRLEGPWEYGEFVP
Description: as §1

[6] = system: T6, Rep nickase domain of maize striate mosaic virus
T6 sequence (residues 1-117 of Rep, tag left off): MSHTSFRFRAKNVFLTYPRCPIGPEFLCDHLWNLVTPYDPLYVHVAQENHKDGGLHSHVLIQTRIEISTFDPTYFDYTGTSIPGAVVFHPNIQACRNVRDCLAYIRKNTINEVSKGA
Description: as §1

[7] = system: T7, Rep nickase domain of porcine circovirus 2
T7 sequence (residues 2-116 of Rep, tag left off): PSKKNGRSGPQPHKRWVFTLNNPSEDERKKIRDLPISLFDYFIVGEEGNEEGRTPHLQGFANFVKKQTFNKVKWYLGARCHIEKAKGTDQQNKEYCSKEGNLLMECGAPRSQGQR
Description: as §1

[8] = system: T8, Rep nickase domain of tomato golden mosaic virus
T8 sequence (residues 1-124 of Rep, tag left off): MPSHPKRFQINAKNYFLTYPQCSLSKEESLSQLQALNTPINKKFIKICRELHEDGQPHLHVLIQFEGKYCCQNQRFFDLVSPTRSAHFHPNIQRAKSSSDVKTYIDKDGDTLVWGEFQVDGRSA
Description: as §1

[9] = system: T9, Rep nickase domain of tomato yellow leaf curl virus
T9 sequence (residues 1-136 of Rep, tag left off): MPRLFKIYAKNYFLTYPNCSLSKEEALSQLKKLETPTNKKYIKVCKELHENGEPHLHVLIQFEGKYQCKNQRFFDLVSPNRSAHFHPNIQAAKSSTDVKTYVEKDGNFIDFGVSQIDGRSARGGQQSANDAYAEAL
Description: as §1

[10] = system: T10, Rep nickase domain of wheat dwarf virus
T10 sequence (residues 1-137 of Rep, tag left off): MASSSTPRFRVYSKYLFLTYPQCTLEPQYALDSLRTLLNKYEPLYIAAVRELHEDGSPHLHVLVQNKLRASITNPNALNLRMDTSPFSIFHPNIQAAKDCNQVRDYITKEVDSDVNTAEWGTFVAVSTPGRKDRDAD
Description: as §1

Sequence	uncleaved DNA left (log2) [1]	uncleaved DNA left (log2) [2]	uncleaved DNA left (log2) [3]	uncleaved DNA left (log2) [4]	uncleaved DNA left (log2) [5]	uncleaved DNA left (log2) [6]	uncleaved DNA left (log2) [7]	uncleaved DNA left (log2) [8]	uncleaved DNA left (log2) [9]	uncleaved DNA left (log2) [10]
TACTGAC	0.0177	-0.0637	-0.201	0.496	-0.0595	0.235	0.11	-0.144	-0.0391	0.0908
CAGTTTA	-0.221	-0.419	-0.109	-0.244	-0.746	0.0986	-2.43	-0.0172	-0.159	-0.169
TGTGCGT	0.0557	-0.152	-0.813	-0.192	-0.0395	-0.888	-0.00261	-0.0762	-0.0895	-0.216
GGCCAAG	0.0849	0.0676	0.232	0.52	0.0664	-0.0777	0.173	0.132	0.2	0.232
CCGAACC	-0.155	-0.141	0.0289	-0.521	-0.12	-0.449	-0.289	0.0106	-0.126	-0.167
AGGGTAA	-0.131	-0.139	0.197	0.922	-0.112	1.16	0.00718	0.0266	-0.0132	-0.0205
CAAACCC	-0.163	-0.109	-0.26	-1.12	-0.0589	-0.749	-0.623	-0.144	-0.0805	-0.0156
TATATCG	0.116	-0.0643	-0.937	-0.277	0.055	-1.09	0.109	-0.0909	-0.0412	-0.106
CCATAAA	0.0449	0.0156	-0.173	-0.318	0.0109	-0.933	0.0189	0.0505	0.0563	-0.0496
GTGGTTC	-0.0939	-0.0546	0.327	0.881	0.0141	1.93	0.15	-0.0473	0.0376	0.093
TGACCGT	-0.0924	-0.0942	0.0604	0.18	-0.147	0.458	0.0809	-0.0275	-0.12	0.108
CCCGCAA	0.00328	0.0722	-0.0378	-0.295	0.0601	-0.801	-0.0366	0.185	0.00892	-0.0394
ATTAATG	0.00587	0.0255	-0.611	-0.618	0.0065	-1.1	0.19	0.0874	0.143	0.013
ATATGCT	-1.74	-0.131	-1.53	-2.35	0.0478	-1.54	-2.49	-0.188	0.0759	-0.228
AGTACCG	-0.111	0.0099	-0.74	-0.774	-0.0624	-0.966	0.0411	-0.0628	-0.047	-0.104
TCGTGTC	0.142	0.0301	0.143	-0.119	0.0548	-0.635	-0.0328	-0.0283	0.118	-0.0205
CCAGGTT	-0.105	-0.179	0.17	0.665	-0.264	1.53	-0.0363	-0.0753	-0.181	-0.163
TATGGAT	0.0729	0.0604	0.307	1.57	0.0856	1.9	0.105	0.0464	-0.149	0.0738
AAAGCAC	-5.13e-05	0.0837	-0.146	0.0404	0.0826	-0.59	0.157	0.112	0.0287	0.0523
GAGGGAA	-0.0828	0.0861	0.373	1.19	-0.0643	1.77	0.109	0.069	-0.0471	-0.0208

Sequence	uncleaved DNA left (log2) [1]	uncleaved DNA left (log2) [2]	uncleaved DNA left (log2) [3]	uncleaved DNA left (log2) [4]	uncleaved DNA left (log2) [5]	uncleaved DNA left (log2) [6]	uncleaved DNA left (log2) [7]	uncleaved DNA left (log2) [8]	uncleaved DNA left (log2) [9]	uncleaved DNA left (log2) [10]
AAGCCGG	-0.137	0.0159	0.244	0.797	-0.0213	0.857	-0.0137	0.00975	-0.15	-0.0384
GGGATTC	-0.0637	0.0215	0.721	1.9	-0.141	2.17	0.136	-0.129	0.0381	0.0801
ATAGTTT	-0.0782	-0.133	-0.167	-2.3	-0.0644	-0.385	-0.136	-0.0666	-0.0787	0.0175
GCTCCGT	0.00873	0.015	-0.113	0.0529	-0.122	-0.303	0.0619	-0.0469	0.0353	0.0127
CGTCATA	0.0561	0.107	0.0521	-0.309	0.136	-0.0819	-0.0672	0.0343	0.196	0.123
TGTTGGA	-0.0883	-0.141	-0.048	-0.265	-0.2	-0.597	-0.0605	-0.123	-0.0101	-0.155
AATATCG	-0.0234	-0.0608	-0.963	-0.173	-0.0919	-1.23	0.0978	-0.0627	-0.101	-0.107
GTTTCTC	0.00813	0.114	0.311	0.877	-0.0309	1.59	0.0681	-0.0131	-0.0111	0.0909
TCGATTC	0.00932	-0.0933	0.169	-0.101	-0.0876	-0.542	0.0592	-0.119	0.0438	0.029
CAATGCC	0.0213	-0.127	-1.83	-2.49	-0.0331	-1.38	-1.18	-0.131	0.0363	-0.366
TAATGCT	-4.06	-1.64	-4.71	-3	-0.0836	-4.08	-4.29	-4.63	-3.47	-4.71
TCTGCAT	-0.0834	-0.107	-0.255	-0.727	-0.149	-0.945	-0.0797	-0.156	-0.114	-0.109
AACACCG	0.0472	0.0898	-0.792	-0.218	0.0824	-0.819	0.154	0.0498	-0.0514	0.0373
CTTTGTG	0.0771	-0.103	-0.863	0.478	0.0723	-0.499	-0.0315	-0.0782	0.112	-0.0407
TTTCCAG	-0.0664	0.0204	-0.597	-0.842	0.0842	-1.03	-0.157	-0.0508	0.084	0.0345
GAAGTGG	0.0695	-0.095	0.0289	0.397	0.0252	-0.0239	0.137	0.0214	0.0432	-0.0445
ACGTTTT	-2.37	-0.399	-0.437	-2.29	-0.0679	-0.437	-3.26	-0.102	-0.102	-0.111
CAGCTCG	-0.109	-0.0502	-0.733	-0.517	0.04	-0.779	0.0992	-0.0713	-0.0624	0.0419
CTAACGC	0.0105	-0.123	-0.514	-0.882	0.00364	-0.848	0.144	-0.142	-0.117	-0.239
TGCTGCC	0.0289	-0.0707	-0.0605	0.13	-0.0882	-0.195	-0.00811	-0.0936	-0.15	-0.0886

Sequence	uncleaved DNA left (log2) [1]	uncleaved DNA left (log2) [2]	uncleaved DNA left (log2) [3]	uncleaved DNA left (log2) [4]	uncleaved DNA left (log2) [5]	uncleaved DNA left (log2) [6]	uncleaved DNA left (log2) [7]	uncleaved DNA left (log2) [8]	uncleaved DNA left (log2) [9]	uncleaved DNA left (log2) [10]
TTTGTTA	-0.16	-0.17	-0.0418	-0.857	-0.00935	-0.27	-0.173	-0.0218	0.0449	-0.11
TTCTAGT	-2.61	-0.103	-0.271	-0.966	-0.0418	-0.841	-3.24	-0.128	-0.0324	-0.000855
TTCGTGG	0.144	0.0303	0.458	0.705	0.112	0.772	0.188	0.103	0.0493	0.135
TGTGGGG	0.0636	-0.0147	0.158	0.216	0.00801	-0.141	0.181	0.0574	-0.0524	-0.00565
AGCGTAA	-0.0228	0.0925	-0.146	0.266	0.0058	0.777	-0.329	0.0436	0.0527	0.0244
GCCGTGC	0.101	-0.018	-0.261	-0.11	0.0684	-0.615	0.109	0.0664	0.076	-0.026
TCGCGGC	-0.0073	-0.0864	-0.16	-0.594	-0.13	-0.739	0.0681	-0.11	-0.0166	-0.167
AAAGTCG	0.0353	0.0548	-0.823	-0.0115	0.138	-0.942	0.152	0.0117	0.089	-0.0677
GGCGCAT	0.00512	0.0342	0.803	1.87	0.0687	2.29	0.0973	0.0818	-0.0728	0.221
CCGAGGA	-0.0186	-0.0631	0.306	0.605	0.0243	0.301	-0.0848	0.0412	-0.0637	0.103
CCGAGCA	0.00334	-0.0532	0.0951	0.268	-0.031	-0.143	-2.13	-0.0116	0.0671	0.0243
TGTTCAG	0.0353	0.0369	-0.611	-0.578	-0.052	-1.05	0.199	-0.0379	0.00526	-0.0263
GAACATC	0.047	0.113	0.743	1.67	-0.0577	2.01	0.214	0.00373	-0.0249	0.208
CGTTCCC	-0.0853	-0.0445	0.0827	0.279	-0.185	-0.00543	-0.162	-0.0646	0.0263	-0.00607
TGTTTTT	-2.83	-0.167	0.28	-0.941	0.0615	0.973	-2.52	0.0316	0.0751	0.0172
CGCGCGA	-0.304	-0.344	-0.668	-0.713	-0.106	-0.67	-0.0446	-0.279	-0.029	-0.301
CTTCAGG	0.0649	0.0419	0.301	1.06	-0.0764	0.801	0.135	0.142	-0.0177	-0.0269
CTTCCCA	-0.201	-0.00471	0.0363	-1.1	-0.0785	-0.655	-1.95	-0.0985	0.132	0.121
